Screen size: about 110,000 compounds; about 230 (0.21%) showed an effect of 50% or more. The list shows a part of the results.
The compounds below were run against DPAP1 (Plasmodium falciparum, UniProt Q8IIJ9) (assay: primary screen, percent inhibition; read by cleavage of a fluorogenic dipeptide substrate; higher = more effect of the substance).
Design: species or system P. falciparum D10 trophozoite lysates; single well
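Further: 30 min substrate incubation versus DMSO and 10 µM JCP410 controls.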

Chain of DPAP1 (Q8IIJ9 whole entry, looked up): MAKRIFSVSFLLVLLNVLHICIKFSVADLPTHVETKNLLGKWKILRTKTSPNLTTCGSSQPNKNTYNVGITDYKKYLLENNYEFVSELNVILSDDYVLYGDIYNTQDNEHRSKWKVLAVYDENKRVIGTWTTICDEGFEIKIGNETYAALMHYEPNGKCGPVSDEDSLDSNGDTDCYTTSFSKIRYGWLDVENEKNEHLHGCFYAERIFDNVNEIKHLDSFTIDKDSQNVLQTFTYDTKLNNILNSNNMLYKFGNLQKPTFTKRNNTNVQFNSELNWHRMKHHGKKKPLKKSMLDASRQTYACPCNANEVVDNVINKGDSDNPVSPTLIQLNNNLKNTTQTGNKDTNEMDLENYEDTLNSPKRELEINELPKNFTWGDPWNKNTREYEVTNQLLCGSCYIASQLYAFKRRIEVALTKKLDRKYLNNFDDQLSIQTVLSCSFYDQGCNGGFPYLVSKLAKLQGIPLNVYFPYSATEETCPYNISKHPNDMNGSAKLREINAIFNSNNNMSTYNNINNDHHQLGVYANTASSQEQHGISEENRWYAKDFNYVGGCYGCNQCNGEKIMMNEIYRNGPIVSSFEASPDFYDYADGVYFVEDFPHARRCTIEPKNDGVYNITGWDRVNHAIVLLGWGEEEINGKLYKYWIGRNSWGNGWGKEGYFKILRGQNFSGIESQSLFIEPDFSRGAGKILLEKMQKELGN

Row | Compound | % Inhibition @ 10 uM
1 | CCOC(=O)C1=C(CN2CCC(C)CC2)NC(=O)NC1c1ccc(OC)cc1 (centres unmarked) | -5.95%
2 | CCC1CCCCN1CCCNC(=O)Cn1cc2c(n1)-c1c(oc(C(=O)N3CCCC3)c1C)CC2 (centres unmarked) | 5.43%
3 | COc1ccc(/C=C(\NC(=O)c2ccco2)C(=O)N2CCCCC2)cc1 | 0.611%
4 | COCc1cc(C)nc2sc(C(=O)O)c(-n3cccc3)c12 | -1.36%
5 | Cc1cc(C(=O)O)ccc1-c1ccc(/C=C2\SC(=O)N(CC(=O)N3CCCC3)C2=O)o1 | 7.78%
6 | Cn1nc(C(=O)NCc2ccc3c(c2)OCO3)c2c1-c1ccccc1S(=O)(=O)C2 | -3.8%
7 | CCCCNC(=O)CN(C)S(=O)(=O)c1ccc(Cl)cc1 | -0.185%
8 | COc1ccc(C(=O)CSC2=C(C#N)C(c3ccco3)C(C(=O)Nc3ccccc3)=C(C)N2)cc1 (centres unmarked) | -3.26%
9 | CCN(CC)CCOCCOc1ccccc1 | 2.5%
10 | CC1CCN(S(=O)(=O)c2ccc3c(ccn3CC(=O)NCCc3cccs3)c2)CC1 | -2.74%
11 | CCCN(CCC)CCNC(=O)Cc1c(C(=O)O)[nH]c2ccccc12 | -2.74%
12 | CCOC(=O)N1CCN(S(=O)(=O)c2cc(OC)ccc2OC)CC1 | 1.67%
13 | C#CCOc1ccc(C(c2ccc(OCC#C)cc2)(C(F)(F)F)C(F)(F)F)cc1 | 7.77%
14 | CC(=O)N1N=C(c2ccco2)CC1c1ccco1 (centres unmarked) | 3.65%
15 | COc1ccc(CN2CCN(c3cccc(C(F)(F)F)c3)CC2)cc1O | -5.57%
16 | O=C(O)CCCNC(=O)CNc1c2ccccc2nc2ccccc12 | 15.7%
17 | Cc1onc(-c2c(Cl)cccc2Cl)c1C(=O)N1CC(C)OC(C)C1 (centres unmarked) | -6.69%
18 | NC(=O)NC(c1ccccc1)c1ccc(Cl)cc1Cl (centres unmarked) | 3.44%
19 | CCO/C(O)=C1\C(C)=NC2(O)CC1C1COC2O1 (centres unmarked) | 3.44%
20 | CN1CCN(c2c(S(=O)(=O)c3ccccc3)cnc3ccc(F)cc23)CC1 | -5.37%
21 | C=CCN(Cc1nc(-c2ccc(OC)cc2)no1)S(=O)(=O)c1ccc(Br)cc1 | -4.54%
22 | Cc1sc(NC(=O)C2CCCO2)c(C(N)=O)c1C (centres unmarked) | -0.436%
23 | O=C(Cn1c(SCc2ccccc2F)nc2ccncc21)NCc1ccco1 | 4.22%
24 | CCOc1ccc(/C=C/C(=O)c2cc3cc(Cl)ccc3oc2=O)cc1OC | 2.73%
25 | CC12CN3CC(C)(CN(C1)C3c1ccco1)C2 (centres unmarked) | -1.82%

Row | Compound | % Inhibition @ 10 uM
26 | CN1CCN(c2nc(-c3ccc(OC4(C(=O)NCC#N)CCCCC4)cc3)cs2)CC1 | -4.72%
27 | Fc1ccccc1-n1ncc2c1ncn1nc(-c3ccncc3)nc21 | -4.64%
28 | COc1ccc(CN2CCN(c3ccc(F)cc3)CC2)cc1O | -4.35%
29 | COc1ccccc1CCNCc1c(C(=O)O)n(Cc2ccc(F)cc2)c2cc(C)ccc12 | 2.56%
30 | CCCOc1cc(C)c(S(=O)(=O)n2cnc3ccccc32)cc1C | -1.11%
31 | Nc1ccccc1C(=O)N1CCCCCC1 | 1.34%
32 | COc1ccc(C2NC(=O)NC(C)=C2C(=O)OCCC(C)C)cc1 (centres unmarked) | -11.2%
33 | CC1(C)CC(=O)C2=C(C1)NC(=O)CC2c1cccc(Oc2ccccc2)c1 (centres unmarked) | -9.42%
34 | Cc1ccc(-c2cn3cc(-c4ccc(Br)cc4)nc3n2C)cc1 | -1.11%
35 | COc1ccc(CN2CCN(Cc3ccc(Cl)cc3)CC2)cc1 | -2.58%
36 | CCOc1ccccc1C1CC(=O)Nc2c1c(=O)n(C)c(=O)n2C (centres unmarked) | -4.16%
37 | O=C(CCN1CCOCC1)Nc1c(O)nc2ccc(Br)cc2c1-c1ccccc1 | -2.92%
38 | COc1ccc(/C(O)=C/C=N/c2ccc(C)c(C)c2)cc1OC | -2.24%
39 | CC(C)C[C@@H](C(=O)NCC#N)c1cccc(-c2cccc(N3CCNCC3)c2)c1 | -4.72%
40 | C/N=c1\c(NC(=O)CC23CC4CC(CC(C4)C2)C3)c(O)oc2ccccc12 | 25.1%
41 | O=C(O)c1ccc(C(=O)c2ccc(Oc3ccc(C(=O)O)c(C(=O)O)c3)cc2)c(C(=O)O)c1 | 3.32%
42 | CCC(CO)NS(=O)(=O)c1cc(-c2nnc(OC)c3ccccc23)ccc1C (centres unmarked) | -0.85%
43 | CCN(CC)C(=O)c1ccc(COc2ccc(Cl)c(C)c2)o1 | 1.92%
44 | CCC(C)NC(=O)CCc1c(C)nc2c3c(C)cc(C)nc3nn2c1C (centres unmarked) | -0.72%
45 | Cc1cccc(CN2CCN(C/C=C/c3ccccc3)CC2)c1 | 3.1%
46 | CCC(Oc1ccccc1)C(=O)N1CCN(C(c2ccccc2)c2ccccc2)CC1 (centres unmarked) | 0.177%
47 | CC(C)Oc1ccccc1-c1cc(C(=O)O)c2ccccc2n1 | -9.68%
48 | CCOC(=O)N1CCN(CC(O)COCc2cc(OC)c(OC)c(OC)c2)CC1 (centres unmarked) | 15.9%
49 | COc1ccc(C2(CNC(=O)c3ccc(F)cc3)CCCC2)cc1OC | 3.95%
50 | O=C1C2C3C=C(Cl)C(c4ccccc43)C2C(=O)N1c1cccc(Br)c1 (centres unmarked) | -5.07%

Row | Compound | % Inhibition @ 10 uM
51 | Cc1ccc(NC(=O)CSc2ncn(-c3ccccc3)n2)cc1C | -0.545%
52 | Cc1[nH]c(-c2ccco2)nc1C12CC3CC(CC(C3)C1)C2 | -2.44%
53 | c1ccc(C2CCC(NCCN3CCOCC3)CC2)cc1 (centres unmarked) | -3.27%
54 | C=C(C)CN(CC)C1CCN(C)CC1 | 1.08%
55 | Cc1cc(NC(=O)c2cc3c(Cl)nc4ccccc4c3s2)no1 | 3.06%
56 | CCOC(=O)C1=C(C)NC(=O)NC1c1cc(Br)ccc1OC (centres unmarked) | -2.28%
57 | Cc1nn(CC(=O)NCCCN2CCN(Cc3ccccc3)CC2)c(=O)c2cccn12 | 1%
58 | CCOc1ccc(C2C(C(=O)c3ccc(F)cc3)=C(O)C(=O)N2CCCCCC(=O)O)cc1 (centres unmarked) | -0.178%
59 | CCOc1cc(/C=C2/C(=N)N3C(SCC(C)C)=NSC3=NC2=O)ccc1O | -6.51%
60 | Cc1cc(C)n(-c2cc(C)c3ccccc3n2)n1 | -1.59%
61 | Cc1c2cnn(CC(=O)NCCCN3CCc4ccccc4C3)c(=O)c2c(C)n1Cc1ccccc1 | -0.447%
62 | O=C(c1ccco1)N1CCN(C2(c3ccccc3)C(=O)c3ccccc3C2=O)CC1 | -1.42%
63 | O=C(c1ccc2nc(/C=C(\O)c3ccc(Cl)cc3)c(O)nc2c1)N1CCN(c2ccco2)CC1 | 5.62%
64 | COc1ccc(N2CCN(Cc3ccc(F)cc3F)CC2)cc1 | 1.4%
65 | Cn1cc(CCC(=O)NCCCc2ccccc2)c2ccccc21 | -1.68%
66 | COc1ccc(C(=O)c2ccc(Br)cc2)c2ccccc12 | 0.467%
67 | CCOC(=O)C1=CN(C(C)C)C=C(C(=O)OCC)C1c1cc(OC)c(OC)c(OC)c1 | -1.48%
68 | Cc1csc(NC(=O)c2ccccc2)n1 | -1.41%
69 | CC(=O)N1CCC(NCCc2ccccc2)CC1 | -5.31%
70 | COc1cc2c(cc1OC)N=C(c1cc(OC)c(OC)cc1NC(C)=O)CC2 | -9.29%
71 | Nc1n[nH]c(CC(=O)NC2(C(=O)Nc3ccccc3)CCCCC2)n1 | -3.09%
72 | CCOc1ccc(C2CC(=O)NC(SCc3ccccc3)=C2C#N)cc1 (centres unmarked) | -4.49%
73 | O=C(NCc1ccc2c(c1)OCO2)NCc1noc2ccccc12 | -2.3%
74 | Cc1cc(=O)oc2c3c(ccc12)OCN(Cc1ccc(C(=O)O)cc1)C3 | -1.71%
75 | FC(F)(F)c1cc(-c2cccs2)nc(N2CCCCC2)n1 | 1.83%

Row | Compound | % Inhibition @ 10 uM
76 | Cc1nnc2c3ccccc3nc(NCCC3=CCCCC3)n12 | 1.74%
77 | COc1cc(CN2CCCN(C)CC2)ccc1O | -0.261%
78 | COc1ccccc1OCC(O)Cn1c[n+](C)c2cc(C)c(C)cc21 (centres unmarked) | -6.69%
79 | CC(C)Oc1ccc(CNC(=O)C(C)n2ccc3cc(S(=O)(=O)N4CCCC4)ccc32)cc1 (centres unmarked) | 9.64%
80 | O=C1c2ccccc2-c2c1cccc2C(=O)N1CCCCC1 | -4.93%
81 | C=CCSc1nnc(-c2ccco2)n1-c1ccccc1 | -1.71%
82 | Cc1cc(C)c(Cn2c3ccccc3c3cnn(CC(=O)N4CCN(C)CC4)c(=O)c32)c(C)c1 | -7.1%
83 | COc1ccccc1N(CC(=O)N1CCOCC1)S(=O)(=O)c1ccc(C)cc1 | 1.64%
84 | O=S(=O)(NCc1csc(-c2ccccc2)n1)c1cc(F)ccc1F | -2.45%
85 | Cc1ccc(CSc2nc3ccc(C(=O)N4CCN(C(=O)c5ccco5)CC4)cc3n2C)cc1 | -7.32%
86 | CC1=CSC2=NC(=O)/C(=C/c3cc(C)n(-c4ccc(F)cc4)c3C)C(=N)N12 | 2.25%
87 | O=C(c1nn2c(C(F)(F)F)cc(-c3ccccc3)nc2c1Cl)N1CCOCC1 | -2.88%
88 | O=C(/C=C/c1ccco1)NC(Cc1ccccc1)c1ccccc1 (centres unmarked) | 3.47%
89 | CC(=O)N1CCN(c2ccc(NC(=O)C(c3ccccc3)c3ccccc3)cc2)CC1 | 5.12%
90 | Oc1ccc(-c2nc3ccc4ccccc4c3c3c2CCC3)cc1O | 6.15%
91 | O=[N+]([O-])c1ccccc1S(=O)(=O)n1cnc2ccccc21 | 3.47%
92 | CCOc1ccc(N2C(=O)CC(N(Cc3ccc(OC)cc3)C(C)=O)C2=O)cc1 (centres unmarked) | -1.04%
93 | CC1=C(C(=O)NCc2ccc3c(c2)OCO3)C2(CCC(C)CC2)OC1=O (centres unmarked) | 3.19%
94 | CSc1nc2sc3c(c2c(=O)n1Cc1ccccc1)CCCC3 | 2.92%
95 | COc1cccc(/C=C2\CS/C(=C\c3cccc(OC)c3OC)C2=O)c1OC | -2.56%
96 | COc1cc(C2C3=C(O)CC(C)(C)CC3=NC(C)=C2C(=O)Nc2nc3ccccc3s2)ccc1O (centres unmarked) | 0.611%
97 | O=C(c1ccc(Cl)cc1)N1CCCc2ccccc21 | -7.28%
98 | COc1ccc(C2C3=C(O)CCCC3=NC3=C2C(=O)CCC3)cc1 (centres unmarked) | 2.7%
